Data reported in publication PMC2172719 (The Journal of Cell Biology, 2003).

B1: His-tagged p97 EQ mutant (enzyme)
chain: not shown
B2: His-tagged p97 AK mutant (enzyme)
chain: not shown
B3: His-tagged p97 QQ mutant (enzyme)
chain: not shown
B4: His-tagged p97 QE mutant (enzyme)
chain: not shown
B5: His-tagged p97 AA mutant (enzyme)
chain: not shown
B6: His-tagged p97 KA mutant (enzyme)
chain: not shown

Molecular target: the molecule itself
Experiment: SEC

Stoichiometry N, 6:
B1
B2
B3
B4
B5
B6
